Source: patent US7816326B2, “Sulfur compounds as inhibitors of hepatitis C virus NS3 serine protease” (Schering Corporation, priority 2004, dated 2010)
Where two headings read alike, the source gives them in different places.

Molecular target: Recombinant heterodimeric HCV NS3/NS4A protease (strain 1a) (Hepatitis C virus genotype 1a, UniProt P27958)
Assay: Spectrophotometric assay for HCV protease inhibitory activity
Type: biochemical
[1] = HCV serine protease inhibitory activity ranges, read-out: Ki* Range

Row | SMILES | Ki [1] [nM] | Ki (HCV NS3/NS4A protease, chromogenic ester substrate, 30° C., pH 6.5, read-out: Ki*) [nM]
1 | CC(C)(C)[C@H](NC(=O)NC1([C@@H]2CCN(C3CC3)S2(=O)=O)CCCCC1)C(=O)N1C[C@H]2[C@@H]([C@H]1C(=O)N[C@@H](CCC1CC1)C(=O)C(=O)NC1CC1)C2(C)C [compound 1216] | < 75 | –
2 | C[C@@H](C1CC1)N(C)S(=O)(=O)CC1(NC(=O)N[C@H](C(=O)N2C[C@H]3[C@@H]([C@H]2C(=O)N[C@@H](CCC2CC2)C(=O)C(=O)NC2CC2)C3(C)C)C(C)(C)C)CCCCC1 [compound 1287] | < 75 | –
3 | CCC[C@H](NC(=O)[C@@H]1[C@@H]2[C@H](CN1C(=O)[C@@H](NC(=O)NC1(CS(=O)(=O)NC)CCCCC1)C(C)(C)C)C2(C)C)C(=O)C(=O)NC1CC1 [compound 1247] | < 75 | –
4 | C[C@H](C1(NC(=O)N[C@H](C(=O)N2C[C@H]3[C@@H]([C@H]2C(=O)N[C@@H](CC2CC2)C(=O)C(=O)NC2CC2)C3(C)C)C2(C)CCCCC2)CCCCC1)S(=O)(=O)N(C)C [compound 1410] | < 75 | 1.2
5 | CN(C)S(=O)(=O)CC1(NC(=O)N[C@H](C(=O)N2C[C@H]3[C@@H]([C@H]2C(=O)N[C@@H](CCC2CC2)C(=O)C(=O)NC2CC2)C3(C)C)C(C)(C)C)CCCCC1 [compound 1201] | < 75 | –
6 | C[C@H](C1(NC(=O)N[C@H](C(=O)N2C[C@H]3[C@@H]([C@H]2C(=O)N[C@@H](CCC2CC2)C(=O)C(=O)NC2CC2)C3(C)C)C(C)(C)C)CCCCC1)S(=O)(=O)N(C)C1CC1 [compound 1416] | < 75 | –
7 | CCCC[C@H](NC(=O)[C@@H]1[C@@H]2[C@H](CN1C(=O)[C@@H](NC(=O)NC1(CS(=O)(=O)N(C)C(C)C)CCCCC1)C1(C)CCCCC1)C2(C)C)C(=O)C(=O)NC1CC1 [compound 1253] | < 75 | –
8 | CCC[C@H](NC(=O)[C@@H]1[C@@H]2[C@H](CN1C(=O)[C@@H](NC(=O)NC1(CS(=O)(=O)N3CCC3)CCCCC1)C1(C)CCCCC1)C2(C)C)C(=O)C(=O)NC1CC1 [compound 1349] | < 75 | –
9 | CCC[C@H](NC(=O)[C@@H]1[C@@H]2[C@H](CN1C(=O)[C@@H](NC(=O)NC1(CS(=O)(=O)N(C(C)C)C3CC3)CCCCC1)C(C)(C)C)C2(C)C)C(=O)C(=O)NC1CC1 [compound 1331] | < 75 | –
10 | CC1([C@H](NC(=O)NC2(CS(=O)(=O)N3CCOCC3)CCCCC2)C(=O)N2C[C@H]3[C@@H]([C@H]2C(=O)N[C@@H](CCC2CC2)C(=O)C(=O)NC2CC2)C3(C)C)CCCCC1 [compound 1371] | < 75 | –
11 | CCC[C@H](NC(=O)[C@@H]1[C@@H]2[C@H](CN1C(=O)[C@@H](NC(=O)NC1([C@@H]3CCN(C4CC4)S3(=O)=O)CCCCC1)C(C)(C)C)C2(C)C)C(=O)C(=O)NC1CC1 [compound 1217] | < 75 | –
12 | CCCC[C@H](NC(=O)[C@@H]1[C@@H]2[C@H](CN1C(=O)[C@@H](NC(=O)NC1([C@@H]3CCN(C)S3(=O)=O)CCCCC1)C(C)(C)C)C2(C)C)C(=O)C(=O)NC1CC1 [compound 1205] | < 75 | –
13 | CN(C)S(=O)(=O)CC1(NC(=O)N[C@H](C(=O)N2C[C@H]3[C@@H]([C@H]2C(=O)N[C@@H](CCC2CC2)C(=O)C(=O)NC2CC2)C3(C)C)C2(C)CCCCC2)CCCCC1 [compound 1235] | < 75 | –
14 | CC1([C@H](NC(=O)NC2(CS(=O)(=O)N3CCOCC3)CCCCC2)C(=O)N2C[C@H]3[C@@H]([C@H]2C(=O)N[C@@H](CC2CC2)C(=O)C(=O)NC2CC2)C3(C)C)CCCCC1 [compound 1373] | < 75 | –
15 | CN(CC1CC1)S(=O)(=O)CC1(NC(=O)N[C@H](C(=O)N2C[C@H]3[C@@H]([C@H]2C(=O)N[C@@H](CCC2CC2)C(=O)C(=O)NC2CC2)C3(C)C)C(C)(C)C)CCCCC1 [compound 1271] | < 75 | –
16 | CCCC[C@H](NC(=O)[C@@H]1[C@@H]2[C@H](CN1C(=O)[C@@H](NC(=O)NC1(CS(=O)(=O)N(C)OC)CCCCC1)C(C)(C)C)C2(C)C)C(=O)C(=O)NC1CC1 [compound 1221] | < 75 | –
17 | CCCC[C@H](NC(=O)[C@@H]1[C@@H]2[C@H](CN1C(=O)[C@@H](NC(=O)NC1(CS(=O)(=O)N(CC)CC)CCCCC1)C1CCCCC1)C2(C)C)C(=O)C(=O)NC1CC1 [compound 1333] | < 75 | –
18 | C#CCC[C@H](NC(=O)[C@@H]1[C@@H]2[C@H](CN1C(=O)[C@@H](NC(=O)NC1(CS(=O)(=O)N(C)C)CCCCC1)C1(C)CCCCC1)C2(C)C)C(=O)C(=O)NC1CC1 [compound 1239] | < 75 | –
19 | CN(C1CC1)S(=O)(=O)CC1(NC(=O)N[C@H](C(=O)N2C[C@H]3[C@@H]([C@H]2C(=O)N[C@@H](CCC2CC2)C(=O)C(=O)NC2CC2)C3(C)C)C2(C)CCCCC2)CCCCC1 [compound 1269] | < 75 | –
20 | CCCC[C@H](NC(=O)[C@@H]1[C@@H]2[C@H](CN1C(=O)[C@@H](NC(=O)NC1(CS(=O)(=O)N(CC)C(C)(C)C)CCCCC1)C1(C)CCCCC1)C2(C)C)C(=O)C(=O)NC1CC1 [compound 1327] | < 75 | –
21 | CCCC[C@H](NC(=O)[C@@H]1[C@@H]2[C@H](CN1C(=O)[C@@H](NC(=O)NC1([C@H](C)S(=O)(=O)N(C)C)CCCCC1)C(C)(C)C)C2(C)C)C(=O)C(=O)NC1CC1 [compound 1401] | < 75 | –
22 | CCCC[C@H](NC(=O)[C@@H]1[C@@H]2[C@H](CN1C(=O)[C@@H](NC(=O)NC1(CS(=O)(=O)N(C)C(C)(C)C3CC3)CCCCC1)C(C)(C)C)C2(C)C)C(=O)C(=O)NC1CC1 [compound 1298] | < 75 | –

Row | SMILES | Ki [1] [nM] | Ki (HCV NS3/NS4A protease, chromogenic ester substrate, 30° C., pH 6.5, read-out: Ki*) [nM]
23 | CCCC[C@H](NC(=O)[C@@H]1[C@@H]2[C@H](CN1C(=O)[C@@H](NC(=O)NC1(CS(=O)(=O)N(C)C(C)(C)C)CCCCC1)C(C)(C)C)C2(C)C)C(=O)C(=O)NC1CC1 [compound 1272] | < 75 | –
24 | CCC[C@H](NC(=O)[C@@H]1[C@@H]2[C@H](CN1C(=O)[C@@H](NC(=O)NC1([C@H]3CCN(C4CC4)S3(=O)=O)CCCCC1)C(C)(C)C)C2(C)C)C(=O)C(=O)NC1CC1 [compound 1218] | < 75 | –
25 | CCC[C@H](NC(=O)[C@@H]1[C@@H]2[C@H](CN1C(=O)[C@@H](NC(=O)NC1(CS(=O)(=O)N3CCCC3)CCCCC1)C(C)(C)C)C2(C)C)C(=O)C(=O)NC1CC1 [compound 1212] | < 75 | –
26 | CCCC[C@H](NC(=O)[C@@H]1[C@@H]2[C@H](CN1C(=O)[C@@H](NC(=O)NC1(CS(=O)(=O)N(C)CC)CCCCC1)C(C)(C)C)C2(C)C)C(=O)C(=O)NC1CC1 [compound 1282] | < 75 | –
27 | CCCC[C@H](NC(=O)[C@@H]1[C@@H]2[C@H](CN1C(=O)[C@@H](NC(=O)NC1([C@H](C)S(=O)(=O)N(C)C)CCCCC1)C1(C)CCCCC1)C2(C)C)C(=O)C(=O)NC1CC1 [compound 1411] | < 75 | –
28 | CCCC[C@H](NC(=O)[C@@H]1[C@@H]2[C@H](CN1C(=O)[C@@H](NC(=O)NC1([C@H](C)S(=O)(=O)N(C)C3CC3)CCCCC1)C(C)(C)C)C2(C)C)C(=O)C(=O)NC1CC1 [compound 1419] | < 75 | –
29 | CCC[C@H](NC(=O)[C@@H]1[C@@H]2[C@H](CN1C(=O)[C@@H](NC(=O)NC1(CS(=O)(=O)N(C)OC)CCCCC1)C(C)(C)C)C2(C)C)C(=O)C(=O)NCC [compound 1230] | < 75 | –
30 | CCCC[C@H](NC(=O)[C@@H]1[C@@H]2[C@H](CN1C(=O)[C@@H](NC(=O)NC1(CS(=O)(=O)N(C)[C@H](C)C3CC3)CCCCC1)C(C)(C)C)C2(C)C)C(=O)C(=O)NC1CC1 [compound 1294] | < 75 | –
31 | CCC[C@H](NC(=O)[C@@H]1[C@@H]2[C@H](CN1C(=O)[C@@H](NC(=O)NC1(CS(=O)(=O)N(C(C)C)C(C)C)CCCCC1)C(C)(C)C)C2(C)C)C(=O)C(=O)NC1CC1 [compound 1345] | < 75 | –
32 | CC(C)N(C)S(=O)(=O)CC1(NC(=O)N[C@H](C(=O)N2C[C@H]3[C@@H]([C@H]2C(=O)N[C@@H](CCC2CC2)C(=O)C(=O)NC2CC2)C3(C)C)C(C)(C)C)CCCCC1 [compound 1249] | < 75 | –
33 | CCC[C@H](NC(=O)[C@@H]1[C@@H]2[C@H](CN1C(=O)[C@@H](NC(=O)NC1(CS(=O)(=O)N(C)C(C)(C)C(F)(F)F)CCCCC1)C1(C)CCCCC1)C2(C)C)C(=O)C(=O)NC1CC1 [compound 1364] | < 75 | –
34 | CN(C(C)(C)C)S(=O)(=O)CC1(NC(=O)N[C@H](C(=O)N2C[C@H]3[C@@H]([C@H]2C(=O)N[C@@H](CC2CC2)C(=O)C(=O)NC2CC2)C3(C)C)C(C)(C)C)CCCCC1 [compound 1275] | < 75 | –
35 | C[C@H](C1(NC(=O)N[C@H](C(=O)N2C[C@H]3[C@@H]([C@H]2C(=O)N[C@@H](CCC2CC2)C(=O)C(=O)NC2CC2)C3(C)C)C2(C)CCCCC2)CCCCC1)S(=O)(=O)N(C)C [compound 1408] | < 75 | –
36 | CCCC[C@H](NC(=O)[C@@H]1[C@@H]2[C@H](CN1C(=O)[C@@H](NC(=O)NC1([C@@H]3CCN(C4CC4)S3(=O)=O)CCCCC1)C(C)(C)C)C2(C)C)C(=O)C(=O)NC1CC1 [compound 1214] | < 75 | –
37 | CC1([C@H](NC(=O)NC2(CS(=O)(=O)N(CC3CC3)C3CC3)CCCCC2)C(=O)N2C[C@H]3[C@@H]([C@H]2C(=O)N[C@@H](CC2CC2)C(=O)C(=O)NC2CC2)C3(C)C)CCCCC1 [compound 1378] | < 75 | –
38 | C#CCC[C@H](NC(=O)[C@@H]1[C@@H]2[C@H](CN1C(=O)[C@@H](NC(=O)NC1(CS(=O)(=O)N(C)C)CCCCC1)C1CCCCC1)C2(C)C)C(=O)C(=O)NC1CC1 [compound 1244] | < 75 | –
39 | CCC[C@H](NC(=O)[C@@H]1[C@@H]2[C@H](CN1C(=O)[C@@H](NC(=O)NC1(CS(=O)(=O)N(CC3CC3)C3CC3)CCCCC1)C1(C)CCCCC1)C2(C)C)C(=O)C(=O)NC1CC1 [compound 1377] | < 75 | –
40 | CCN(C(C)C)S(=O)(=O)CC1(NC(=O)N[C@H](C(=O)N2C[C@H]3[C@@H]([C@H]2C(=O)N[C@@H](CCC2CC2)C(=O)C(=O)NC2CC2)C3(C)C)C(C)(C)C)CCCCC1 [compound 1301] | < 75 | –
41 | CCCNC(=O)C(=O)[C@H](CC1CC1)NC(=O)[C@@H]1[C@@H]2[C@H](CN1C(=O)[C@@H](NC(=O)NC1(CS(=O)(=O)N(C)OC)CCCCC1)C(C)(C)C)C2(C)C [compound 1229] | < 75 | –
42 | CCC[C@H](NC(=O)[C@@H]1[C@@H]2[C@H](CN1C(=O)[C@@H](NC(=O)NC1(CS(=O)(=O)N(CC)C3CC3)CCCCC1)C1(C)CCCCC1)C2(C)C)C(=O)C(=O)NC1CC1 [compound 1361] | < 75 | –
43 | CN(C1CC1)S(=O)(=O)CC1(NC(=O)N[C@H](C(=O)N2C[C@H]3[C@@H]([C@H]2C(=O)N[C@@H](CC2CC2)C(=O)C(=O)NC2CC2)C3(C)C)C(C)(C)C)CCCCC1 [compound 1321] | < 75 | –
